In all, about 81,000 sequences were measured (“one-hybrid fitness for binding NBS DNA”: median about -0.1, highest 2% from about 0.36 on). Some of the results follow.
B1: Caulobacter ParB omega fusion; a variant is named by its letters at X, in order, B8GW30 (parent)
chain: MESVVVGEPGMSEGRRGLGRGLSALLGEVDAAPAQAPGEQLGGSREAPIEILQRNPDQPRRTFREEDLEDLSNSIREKGVLQPILVRPSPDTAGEYQIVAGERAWRAAQRAGLKTVPIMVRELDDLAVLEIGIIENVQRADLNVLEEALSYKVLMEKFERTQENIAQTIGKSXSHVANXMRLLXLPDEVQSYLVSGELTAXHARAIAAAADPVALAKQIIEGGLSVRETEALARKAPNLSAGKSKGGRPPRVKDTDTQALESDLSSVLGLDVSIDHRGSTGTLTITYATLEQLDDLCNRLTRGI

Variants of: B1
Assay: one-hybrid fitness for binding NBS DNA (the Noc-binding site; scaled: cognate 1, non-cognate 0); higher = stronger binding
Conditions: with NBS DNA site
Summary of the method: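 Caulobacter ParB libraries with four specificity codons randomised were screened by bacterial one-hybrid selection in the E. coli USO strain, using a HIS3 reporter whose site lies 19 bp from the promoter. Selection ran for 48 hours at 37°C on M9 lacking histidine, with 0.1 mM IPTG and 5 mM 3-AT. Plasmids were Illumina-sequenced before and after selection, three replicate libraries were pooled, and variants with under 10 reads were dropped. Fitness is the log change in each variant's read ratio to wild type, rescaled against the cognate and non-cognate sites.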

one-hybrid fitness for binding NBS DNA, 0.309:
RRAV

one-hybrid fitness for binding NBS DNA, 0.238:
RRVN

one-hybrid fitness for binding NBS DNA, 0.617:
KRNT

one-hybrid fitness for binding NBS DNA, 0.203:
PAKR

one-hybrid fitness for binding NBS DNA, 0.379:
QSVR

one-hybrid fitness for binding NBS DNA, 0.583:
RKCT

one-hybrid fitness for binding NBS DNA, 0.296:
QSCS

one-hybrid fitness for binding NBS DNA, 0.219:
RCHH

one-hybrid fitness for binding NBS DNA, ≤ 0.2:
RCDQ
DGSC
SMNH
FNSK
VQSS
LMTA
QKPF
CYMA
PETV
DNWY
VKMF
EKPG
KLMQ
ACTE
RFRA
AVAF
PKDG
TWKS
AMSL
TEYS
CQGR
PYRG
YLKD
CLRH
VVWG
HGQC
CSAV
NSSW
WQGN
AEPF
VIMY
KTHF
QFRM
HFCG
DVQL
LQSF
TKHS
NQPL
PANY
LGKT
QGRE
RHWG
NYHS
PMRL
KISR
FCDT
YLGD
RDST
LMIL
TQER
ECKG
TSWL
VKVR
LHGC
WYAC
PFSL
TCRN
HGKY
LLAS
SLNW
NTAW
VQTW
ALYF
TLCF
SHQP
AVKE
SVLD
QNNH
LGWL
RKDF
YPLE
PWSR
FRYA
PMGS
PGIC
LQWI
STSM
SLLG
FNPR
TPHG
SSMH
ECIV
QTPC
QIMC
CKMG
MGRI
FINF
YWWR
AATM
EGIC
RCYH
QSHG
MLLP
QVMY
KYKM
VSLR
QANQ
GQAG
TLCA
SRTK
EWLT
MVSC
AQEK
MHTE
PLQF
EMSW
MFHS
KMLW
VTVH
RMAC
VWPC
VDSN
KGWL
RDLN
AHAF
RFDW
RPSR
FARG
DSYC
NDPK
DASR
TDLL
VESG
PKAC
RLQP
PDRR
GFMS
CSNM
DMVF
RNLR
YPEY
NIDV
PDSV
HHGL
TSGH
LPIV
MGAG
KNIT
CKAC
QTYN
IRPF
CVHV
VLAR
CRFT
WHQT
YSSG
PWKS
SRAL
ARKD
RLEL
MVHS
HAHP
RGNY
RETI
ETSF
ATHQ
CYHM
PDFI
AWSL
YFSR
LNTC
RHSF
AAMY
QGSE
SALE
SCCT
RTIE
PHTV
LCSE
LSIM
STLE
YEEM
AYDP
GLNG
VQGI
CTAV
PVRA
YYVQ
YTTW
LPGK
SHVG
IQAT
FLGV
YPLC
RMSD
QHFA
HLPV
NLSF
HYED
IGST
ATSV
HGRM
PSVE
LNTE
EALG
KRDA
ERRS
NIFD
GWIG
MYER
LNHG
SKLL
RGRC
NEYS
REKI
AQSV
TNRD
GLGC
TEHD
KGIT
QAHV
VIGS
HTHK
LNRR
PATM
GVAR
YTAA
INDI
AWNR
RTAC
SFDF
GSLK
PETM
RQMW
MARV
RFLH
NMAP
VDRG
YRFS
PHPH
CPEG
QRPH
PPKV
EPKG
PPDN
VFFA
VTVT
YNNK
KPVC
GNIG
DDCV
ELRK
EAFG
RAHL
SRKV
RKYL
IQYA
HSRS
AQIA
PWSP
MGCR
FNNA
NSRS
RKAK
HKAR
LNDS
NLLC
DQCR
FQIS
TQLW
SETR
RPWC
NFAV
MVWG
WAPS
AGWN
EPDG
CRQY
RDKF
RPQV
WLHG
MSCE
YKRH
MSKI
DKHT
MKET
KTDL
GHSI
NCGR
DTNS
QMGC
VQPR
QYNG
CRLI
RWAG
NNCL
HLML
RITN
GLES
RYGI
GQNS
KEMR
QIKG
YRHA

one-hybrid fitness for binding NBS DNA, 0.388:
QFKT

one-hybrid fitness for binding NBS DNA, 0.527:
QTLT

one-hybrid fitness for binding NBS DNA, 0.331:
RQKY

one-hybrid fitness for binding NBS DNA, 0.426:
QTLS
